# In PMC9911399, “Two distinct binding modes provide the RNA-binding protein RbFox with extraordinary sequence specificity”:
# Substitutions are numbered along the chain they refer to; changes in the protein carry UniProt numbers. Some of the results follow.
# T1: RBFOX1 RRM RbFoxmut (Fox-RRM*) (Homo sapiens, UniProt Q9NWB1 109-208, R118D;E147R;N151S;E152T)
# T1 sequence: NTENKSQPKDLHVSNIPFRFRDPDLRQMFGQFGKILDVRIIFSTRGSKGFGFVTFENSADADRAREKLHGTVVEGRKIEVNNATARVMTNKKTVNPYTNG
# B1: CUCCAUA (DNA:RNA)
# RNA: GGGAGACCGGAAUUCAGAUUGUCCCUCCAUAUUAAAUCCCGUCGUAGCCACCA
# DNA 1: CAATCTGAATTCCGGTCTCCC
# DNA 2: TGGTGGCTACGACGGGATT
# B2: GAGCUCA (DNA:RNA)
# RNA: B1 RNA with C25G, U26A, C27G, A29U, U30C
# DNA 1: CAATCTGAATTCCGGTCTCCC
# DNA 2: TGGTGGCTACGACGGGATT
# B3: AAUCGUG (DNA:RNA)
# RNA: B1 RNA with C25A, U26A, C27U, A29G, A31G
# DNA 1: CAATCTGAATTCCGGTCTCCC
# DNA 2: TGGTGGCTACGACGGGATT
# B4: CUGUCGA (DNA:RNA)
# RNA: B1 RNA with C27G, C28U, A29C, U30G
# DNA 1: CAATCTGAATTCCGGTCTCCC
# DNA 2: TGGTGGCTACGACGGGATT
# B5: AUAGGCU (DNA:RNA)
# RNA: B1 RNA with C25A, C27A, C28G, A29G, U30C, A31U
# DNA 1: CAATCTGAATTCCGGTCTCCC
# DNA 2: TGGTGGCTACGACGGGATT
# B6: AGGCUUC (DNA:RNA)
# RNA: B1 RNA with C25A, U26G, C27G, A29U, A31C
# DNA 1: CAATCTGAATTCCGGTCTCCC
# DNA 2: TGGTGGCTACGACGGGATT
# B7: UCCAUAA (DNA:RNA)
# RNA: B1 RNA with C25U, U26C, C28A, A29U, U30A
# DNA 1: CAATCTGAATTCCGGTCTCCC
# DNA 2: TGGTGGCTACGACGGGATT
# B8: CAGUGAU (DNA:RNA)
# RNA: B1 RNA with U26A, C27G, C28U, A29G, U30A, A31U
# DNA 1: CAATCTGAATTCCGGTCTCCC
# DNA 2: TGGTGGCTACGACGGGATT
# B9: GGAAAGG (DNA:RNA)
# RNA: B1 RNA with C25G, U26G, C27A, C28A, U30G, A31G
# DNA 1: CAATCTGAATTCCGGTCTCCC
# DNA 2: TGGTGGCTACGACGGGATT
# Target: T1, RBFOX1 RRM RbFoxmut (Fox-RRM*)
# Assay: EMSA; HiTS-Eq, 1 nM pool, 10 min; buffer printed only for the single-RNA assays: 10 mM Tris pH 7.5, 150 mM NaCl, 3.4 mM EDTA, 0.001% NP-40, 30 C
# Conditions: tags: His6 N-terminal (pET28a); label: 5' 32P
# Summary of the method: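 Purified RbFox RRM, wild type or mutant, was incubated for 10 min in 50 µL with 1 nM of a 5′-radiolabelled RNA pool carrying 7 randomized nucleotides, whose flanks were annealed to DNA oligonucleotides, over a series of increasing protein concentrations. Unbound RNA was resolved on 8% native PAGE, cut out, reverse-transcribed, barcoded by PCR and sequenced on an Illumina HiSeq 2500. Relative association constants were derived from changes in read counts for each RNA species versus the control reaction and normalised to the cognate motif.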
row,Binder,binding signal
1,B1,0.103 KA relative to UGCAUGU
2,B2,0.0778 KA relative to UGCAUGU
3,B3,0.0974 KA relative to UGCAUGU
4,B4,0.0775 KA relative to UGCAUGU
5,B5,0.103 KA relative to UGCAUGU
6,B6,0.111 KA relative to UGCAUGU
7,B7,0.0804 KA relative to UGCAUGU
8,B8,0.0883 KA relative to UGCAUGU
9,B9,0.0622 KA relative to UGCAUGU
